Experimental data taken from PMC4964934.
Results are given in words; binding and its absence hold for the method and conditions named. In cells and extracts the contact can be indirect. Some binding calls cover weakened binding; strength is not graded here. For some of these results: Sequences can lack the tags named with a protein.

Amino acid sequences for entries named in this document (tags omitted). A change or cut given only in a name is not applied to a line headed by its entry. Residues count along the entry.
UniProt O95243: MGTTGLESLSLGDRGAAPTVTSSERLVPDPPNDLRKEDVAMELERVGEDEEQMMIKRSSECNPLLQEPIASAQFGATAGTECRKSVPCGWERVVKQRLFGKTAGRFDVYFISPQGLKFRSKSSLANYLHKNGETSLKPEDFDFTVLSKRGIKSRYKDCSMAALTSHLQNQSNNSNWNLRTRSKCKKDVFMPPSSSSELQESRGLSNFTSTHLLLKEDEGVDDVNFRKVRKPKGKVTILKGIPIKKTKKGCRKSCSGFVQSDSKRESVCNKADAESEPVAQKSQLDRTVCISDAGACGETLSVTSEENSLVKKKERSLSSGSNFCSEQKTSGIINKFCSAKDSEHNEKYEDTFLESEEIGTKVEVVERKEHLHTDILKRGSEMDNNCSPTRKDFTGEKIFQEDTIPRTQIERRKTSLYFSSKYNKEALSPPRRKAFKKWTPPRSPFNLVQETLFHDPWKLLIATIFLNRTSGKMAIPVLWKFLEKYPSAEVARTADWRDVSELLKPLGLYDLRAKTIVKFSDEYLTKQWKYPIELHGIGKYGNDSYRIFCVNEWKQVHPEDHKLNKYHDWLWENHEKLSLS
6HIS-TF-UB-hMBD4 mutant 2 (MBD and intervening region, amino acid 1-408): residues 1-408 of O95243
6HIS-TF-UB-hMBD4 mutant 4 (intervening region and the downstream interaction region, 156-455): residues 156-455 of O95243
UniProt Q9Z2D7: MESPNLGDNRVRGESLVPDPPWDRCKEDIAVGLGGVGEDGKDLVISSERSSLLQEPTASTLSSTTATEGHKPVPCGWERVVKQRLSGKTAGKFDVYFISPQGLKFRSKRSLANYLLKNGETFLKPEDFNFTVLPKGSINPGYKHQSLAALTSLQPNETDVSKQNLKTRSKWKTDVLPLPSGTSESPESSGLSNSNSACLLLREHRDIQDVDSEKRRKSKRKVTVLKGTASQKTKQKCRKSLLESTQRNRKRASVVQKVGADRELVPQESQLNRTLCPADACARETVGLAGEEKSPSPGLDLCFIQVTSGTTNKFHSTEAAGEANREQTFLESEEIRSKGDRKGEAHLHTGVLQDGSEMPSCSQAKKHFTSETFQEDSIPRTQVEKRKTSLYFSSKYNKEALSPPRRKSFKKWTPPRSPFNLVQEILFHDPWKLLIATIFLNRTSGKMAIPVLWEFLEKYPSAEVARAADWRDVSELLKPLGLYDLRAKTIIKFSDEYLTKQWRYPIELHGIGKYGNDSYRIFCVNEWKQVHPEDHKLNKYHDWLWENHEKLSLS

How the values were obtained:
[1] = target: FLAG-hMBD4 (SF-TAP-hMBD4), human full-length MBD4 (human) (UniProt O95243); test: co-IP; ectopic proteins in HEK293T; MNase-treated nuclear extract (300 mM NaCl); anti-FLAG sepharose beads, 2 h at 4°C; Western blot
[2] = target: GFP-mMBD4, GFP epitope-tagged mouse MBD4 (mouse) (UniProt Q9Z2D7); test: co-IP; ectopic proteins in HEK293T; nuclear extract without MNase (no chromatin digestion); GFP beads (ChromoTek), 2 h at 4°C; Western blot
[3] = target: 6HIS-TF-UB-hMBD4 mutant 2 (MBD and intervening region, amino acid 1-408) (human) (UniProt O95243); test: pull-down; purified 6HIS-TF-UB hMBD4 mutants pre-incubated with Ni-NTA agarose; mixed 1 h at 4°C with nuclear lysate (without chromatin digestion) of 293T cells transfected with FLAG-UHRF1 or GFP-Mlh1; RIPA washes; Western blot (6HIS IP); only the target purified
[4] = target: 6HIS-TF-UB-hMBD4 mutant 4 (intervening region and the downstream interaction region, 156-455) (human) (UniProt O95243); test: as above

| binding [1] | binding [2] | binding [3] | binding [4] | Binder |
| --- | --- | --- | --- | --- |
| binds | – | – | – | mouse version of UHRF1 (ectopic) (protein, UniProt Q8VDF2 1-782) MWIQVRTMDGKETHTVNSLSRLTKVQELRKKIEEVFHVEPQLQRLFYRGKQMEDGHTLFDYDVRLNDTIQLLVRQSLALPLSTKERDSELSDSDSGYGVGHSESDKSSTHGEGAAEADDKTVWEDTDLGLYKVNEYVDVRDNIFGAWFEAQVVQVQKRALSEDEPCSSSAVKTSEDDIMYHVKYDDYPEHGVDIVKAKNVRARARTVIPWENLEVGQVVMANYNVDYPRKRGFWYDVEICRKRQTRTARELYGNIRLLNDSQLNNCRIMFVDEVLMIELPKERRPLIASPSQPPPALRNTGKSGPSCRFCKDDENKPCRKCACHVCGGREAPEKQLLCDECDMAFHLYCLKPPLTSVPPEPEWYCPSCRTDSSEVVQAGEKLKESKKKAKMASATSSSRRDWGKGMACVGRTTECTIVPANHFGPIPGVPVGTMWRFRVQVSESGVHRPHVAGIHGRSNDGAYSLVLAGGYEDDVDNGNYFTYTGSGGRDLSGNKRTAGQSSDQKLTNNNRALALNCHSPINEKGAEAEDWRQGKPVRVVRNMKGGKHSKYAPAEGNRYDGIYKVVKYWPERGKSGFLVWRYLLRRDDTEPEPWTREGKDRTRQLGLTMQYPEGYLEALANKEKSRKRPAKALEQGPSSSKTGKSKQKSTGPTLSSPRASKKSKLEPYTLSEQQANLIKEDKGNAKLWDDVLTSLQDGPYQIFLSKVKEAFQCICCQELVFRPVTTVCQHNVCKDCLDRSFRAQVFSCPACRFELDHSSPTRVNQPLQTILNQLFPGYGSGR |
| – | binds | binds | binds | FLAG-UHRF1, FLAG epitope-tagged human UHRF1 (protein, UniProt Q96T88 1-793) MWIQVRTMDGRQTHTVDSLSRLTKVEELRRKIQELFHVEPGLQRLFYRGKQMEDGHTLFDYEVRLNDTIQLLVRQSLVLPHSTKERDSELSDTDSGCCLGQSESDKSSTHGEAAAETDSRPADEDMWDETELGLYKVNEYVDARDTNMGAWFEAQVVRVTRKAPSRDEPCSSTSRPALEEDVIYHVKYDDYPENGVVQMNSRDVRARARTIIKWQDLEVGQVVMLNYNPDNPKERGFWYDAEISRKRETRTARELYANVVLGDDSLNDCRIIFVDEVFKIERPGEGSPMVDNPMRRKSGPSCKHCKDDVNRLCRVCACHLCGGRQDPDKQLMCDECDMAFHIYCLDPPLSSVPSEDEWYCPECRNDASEVVLAGERLRESKKKAKMASATSSSQRDWGKGMACVGRTKECTIVPSNHYGPIPGIPVGTMWRFRVQVSESGVHRPHVAGIHGRSNDGAYSLVLAGGYEDDVDHGNFFTYTGSGGRDLSGNKRTAEQSCDQKLTNTNRALALNCFAPINDQEGAEAKDWRSGKPVRVVRNVKGGKNSKYAPAEGNRYDGIYKVVKYWPEKGKSGFLVWRYLLRRDDDEPGPWTKEGKDRIKKLGLTMQYPEGYLEALANREREKENSKREEEEQQEGGFASPRTGKGKWKRKSAGGGPSRAGSPRRTSKKTKVEPYSLTAQQSSLIREDKSNAKLWNEVLASLKDRPASGSPFQLFLSKVEETFQCICCQELVFRPITTVCQHNVCKDCLDRSFRAQVFSCPACRYDLGRSYAMQVNQPLQTVLNQLFPGYGNGR |
